# Test results taken from PubChem BioAssay AID588855 (National Center for Advancing Translational Sciences (NCATS), 2011).
# About 5,000 (1.2%) of roughly 410,000 compounds were called active. This list was built around the results that the source calls inconclusive (neither active nor inactive); the mix of calls is not that of the screen. Calls come from the whole dose curve; as a rule, active = well fitted inhibition curve with a large enough effect; inconclusive = small, poorly fitted or top-dose-only effect; inactive = no such curve, though single readings can be large or run the other way. Potencies of inconclusive entries are doubtful fits and often do not repeat.
# Assay: qHTS for Inhibitors of TGF-b; note: nearly all actives have a fitted effect of over 65% in size
# Conditions: HepG2 CAGA-GFP TGF-b/SMAD3 reporter, GFP fluorescence, 18 h, TGF-beta stimulated, 500 pg/mL final; series mostly up to 46.1 µM
# Method in brief: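 Per well, imaged GFP fluorescence of HEPG2 CAGA-GFP cells gives the signal; cells get compound, then TGF-beta (500 pg/mL final), 18 h at 37 degrees C; %Activity versus -TGF-beta and +DMSO controls.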
# Potency is the fitted concentration of half-maximal effect; tags give direction and shape of the fitted curve.
row,Structure (SMILES),Potency
1,CC(Sc1ncn[nH]1)C(=O)Nc1ccc(Cl)cn1 (stereo unspecified),inactive
2,CCOc1ccccc1NC(=O)c1ccc(NC(=O)c2ccco2)cc1,"inconclusive: 22.4 µM [inhibitor, single point]"
3,CCc1ccc2c(c1)/C(=N/N(C)C(=S)NC)C(=O)N2,"inconclusive: 5.01 µM [inhibitor, single point]"
4,CCCCCc1ccc(-c2cn(Cc3ccc(C(=O)c4ccccc4)cc3)nn2)cc1,"inconclusive: 35.5 µM [inhibitor, single point]"
5,Cc1cc(Nc2ccc(Br)cc2)n2nc(-c3ccccc3C)nc2n1,"inconclusive: 14.1 µM [inhibitor, partial curve, poor fit]"
6,O=C1CCCc2cc(S(=O)(=O)NCC3CCC(C(=O)Nc4ccc(Cl)cc4)CC3)ccc2N1 (stereo unspecified),inactive
7,CN(C(=O)COC(=O)c1ccc(Cl)c(S(=O)(=O)N2CCCCCC2)c1)C1CCS(=O)(=O)C1 (stereo unspecified),"inconclusive: 15.8 µM [inhibitor, single point]"
8,CCOC(=O)c1c(C)[nH]c(C(=O)OCC(=O)NC2(C#N)CCCCC2)c1C,inactive
9,CCS(=O)(=O)c1ccccc1C(=O)N(Cc1cccnc1)c1nc2cc(C)c(C)cc2s1,"inconclusive: 35.5 µM [inhibitor, single point]"
10,Cc1sc(NC(=O)C2CSC3(C)CCC(=O)N23)nc1-c1ccc(F)cc1 (stereo unspecified),"inconclusive: 35.5 µM [inhibitor, single point]"
11,CN(C(=O)CSc1nc2ccccc2n1CC(=O)NCc1ccc(F)cc1)c1ccc(F)cc1,"inconclusive: 17.8 µM [inhibitor, single point]"
12,O=C(CSc1ccc(Br)c2cccc(Cl)c12)Nc1ccc(S(=O)(=O)Nc2nccs2)cc1,"inconclusive: 35.5 µM [inhibitor, single point]"
13,CCc1noc2nc(C)n(CC(=O)O)c(=O)c12,"inconclusive: 6.31 µM [inhibitor, single point]"
14,CC(NC(=O)COC(=O)c1ccco1)C12CC3CC(CC(C3)C1)C2 (stereo unspecified),inactive
15,CCCCN(Cc1ccccc1)S(=O)(=O)c1ccc2c(c1)CC(C)N2C(=O)CC (stereo unspecified),"inconclusive: 22.4 µM [inhibitor, single point]"
16,O=C(NCc1ccccc1)C1=C[C@H](c2csc3ccccc23)C[C@H](OCc2ccc(CO)cc2)O1,"inconclusive: 35.5 µM [inhibitor, single point]"
17,CCCCC[n+]1cccc2c3ccccc3ccc21,"inconclusive: 15.8 µM [inhibitor, partial curve, poor fit]"
18,[O-][n+]1c2ccc3nonc3c2nn1-c1ccccc1Cl,"inconclusive: 35.5 µM [inhibitor, single point]"
19,S=C(Nc1ccc(Br)cc1)N1CCCC1,"inconclusive: 25.1 µM [inhibitor, single point]"
20,O=C1C=C(N2CCN(c3ccccn3)CC2)C(=O)c2c(O)ccc(O)c21,active: 7.08 µM
21,Cc1ccc(S(=O)OCC(=O)Nc2cc(Cl)ccc2N2CCOCC2)cc1 (stereo unspecified),"inconclusive: 35.5 µM [inhibitor, single point]"
22,Cc1cc2nc(-c3ccc(Cl)cc3)c(Cc3cccc(F)c3)n2c(C)c1Br,"inconclusive: 17.8 µM [inhibitor, partial curve, poor fit]"

row,Structure (SMILES),Potency
1,O=C(Cc1cccs1)NCCSc1c(-c2ccc(Cl)cc2)[nH]c2ccccc12,"inconclusive: 35.5 µM [inhibitor, single point]"
2,Cn1c(-c2cccc(OCc3ccccc3)c2)nc2c1c(=O)[nH]c(=O)n2Cc1ccccc1,inactive
3,Cc1noc(C)c1S(=O)(=O)N(C)C[C@H]1Oc2c(NC(=O)NC(C)C)cccc2C(=O)N([C@H](C)CO)C[C@@H]1C,"inconclusive: 39.8 µM [inhibitor, partial curve, poor fit]"
4,O=C1CC(c2cc(F)ccc2F)c2cc3c(cc2N1)CCC3 (stereo unspecified),"inconclusive: 10 µM [inhibitor, partial curve]"
5,O=S(=O)(NCC(c1ccco1)N1CCN(c2ccc(F)cc2)CC1)c1ccccc1 (stereo unspecified),"inconclusive: 35.5 µM [inhibitor, single point]"
6,CC(=O)c1c(C)[nH]c(C(=O)OCC(=O)Nc2c(C)cccc2C)c1C,"inconclusive: 28.2 µM [inhibitor, single point]"
7,CCOc1cc(C=NNC(=O)N(c2ccccc2)c2ccccc2)ccc1O,inactive
8,Cc1cc(C(=O)N/N=C/c2c(C)nn(-c3ccccc3)c2Cl)n[nH]1,"inconclusive: 5.62 µM [inhibitor, single point]"
9,Cc1cccc(C)c1OCCCCn1c(C2CC(=O)N(c3ccc(F)cc3)C2)nc2ccccc21 (stereo unspecified),"inconclusive: 35.5 µM [inhibitor, single point]"
10,CCCSc1cc(N2CCN(C)CC2)nc(-c2ccc(OC)cc2)n1,"inconclusive: 31.6 µM [inhibitor, single point]"
11,CC(O)(c1ccccc1)c1nc(-c2ccc(S(C)(=O)=O)cc2)cs1 (stereo unspecified),inactive
12,CCC(Cc1ccccc1)NC(=O)c1oc(=O)c2ccccc2c1-c1ccccc1 (stereo unspecified),"inconclusive: 8.91 µM [inhibitor, partial curve, poor fit]"
13,Cc1cc(NC(=O)Nc2ccc(Cl)c(Cl)c2)n(-c2ccccc2)n1,"inconclusive: 20 µM [inhibitor, partial curve, poor fit]"
14,O=C(c1ccc(Cn2c(=O)[nH]c3ccsc3c2=O)cc1)N1CCN(c2ccccc2)CC1,inactive
15,CC1=NNC(=O)/C1=C\c1cn(-c2ccccc2)nc1-c1ccccc1,active: 8.91 µM
16,O=c1c2ccccc2oc2cc(-c3ccc4[nH]ccc4c3)ccc12,"inconclusive: 12.6 µM [inhibitor, partial curve, poor fit]"
17,CCCOc1ccccc1OCC(=O)Nc1ccc(S(=O)(=O)N2CCCC2)cc1,inactive
18,Cc1nc(N)nc(N)c1-c1ccc(Cl)c(Cl)c1,"inconclusive: 1 µM [inhibitor, full curve]"
19,CSc1ccccc1C(=O)C1CCCN(C(=O)c2cccc(Cn3cccn3)c2)C1 (stereo unspecified),inactive
20,COc1cc(C(=O)N2CCC(n3cnc4cc(F)ccc43)CC2)cc(OC)c1OC,inactive
21,COc1ccc(C(=O)NCCc2nnc3ccc(SCC(=O)NCc4ccccc4)nn23)cc1,"inconclusive: 22.4 µM [inhibitor, single point]"
22,CC(=O)c1ccc(N2CCN(C(=O)c3ccc4[nH]c(C)c(C)c4c3)CC2)cc1,"inconclusive: 22.4 µM [inhibitor, single point]"

row,Structure (SMILES),Potency
1,O=C(NNC(=O)c1ccc(O)cc1O)c1ccc(Cl)cc1,inactive
2,CC1(C)CC(=O)C2=C(C1)NC(SCC(=O)Nc1ccccc1)=C(C#N)C21CCCCC1,"inconclusive: 35.5 µM [inhibitor, partial curve, poor fit]"
3,CCNC(=O)CN(c1ccc(CC)cc1)S(C)(=O)=O,"inconclusive: 6.31 µM [inhibitor, single point]"
4,CCCCN1C(=S)NC[C@@H]1c1ccccc1,"inconclusive: 17.8 µM [inhibitor, single point]"
5,O=C(CN(c1ccccc1Cl)S(=O)(=O)c1ccccc1)NC1CC2CCC1C2 (stereo unspecified),inactive
6,S=c1[nH]nc(CCc2ccccc2)n1-c1ccc(Cl)cc1,inactive
7,COc1ccccc1NC(=S)NC(=O)CC(C)C,inactive
8,CCc1ccccc1NC(=S)N(Cc1ccco1)C(C)c1cccs1 (stereo unspecified),inactive
9,CCOC(=O)N1CCC(c2cc(=O)n3[nH]c(-c4ccccc4)cc3n2)CC1,"inconclusive: 2.82 µM [inhibitor, single point]"
10,Cc1cc(C)cc(C(=O)N2CC(=O)Nc3ccc(C)cc3C2c2ccccc2)c1 (stereo unspecified),"inconclusive: 35.5 µM [inhibitor, single point]"
11,CC(=O)NCCCC(=O)NC(CCC(=O)OCc1ccccc1)C(=O)OCc1ccccc1 (stereo unspecified),"inconclusive: 12.6 µM [inhibitor, single point]"
12,CS(=O)(=O)Nc1ccc(C(=O)NCC2CCCO2)cc1 (stereo unspecified),"inconclusive: 17.8 µM [inhibitor, single point]"
13,COc1ccc(NC(=O)Nc2nc(C(N)C3CCCCC3)cs2)cc1 (stereo unspecified),"inconclusive: 35.5 µM [inhibitor, single point]"
14,CC(C)(C)OC(=O)N1CCC(c2c(C(=O)N3CCc4ccccc4C3)cnn2-c2ccc(Cl)cc2)CC1,"inconclusive: 0.562 µM [inhibitor, full curve, poor fit]"
15,CCNC(=O)C(=O)NCCC1CCCCN1S(=O)(=O)c1cccs1 (stereo unspecified),inactive
16,Cc1sc2nc(SCC(=O)N(CCO)CCO)n(C3CCCCC3)c(=O)c2c1C,"inconclusive: 4.47 µM [inhibitor, single point]"
17,CCC(O)(CC)C(=O)NN(C(=O)CCl)c1ccccc1,"inconclusive: 28.2 µM [inhibitor, partial curve, poor fit]"
18,CC1(C)N=C(SCC(=O)Nc2ccc(Cl)cc2)C(c2ccccc2)=N1,"inconclusive: 31.6 µM [inhibitor, single point]"
19,CCOc1ccc(-c2cc(C(=O)NCc3cc(OC)cc(OC)c3)[nH]n2)c(C)c1,inactive
20,Cc1cc(NC(c2nnc(-c3ccccc3)o2)c2ccccc2F)ccc1Br (stereo unspecified),"inconclusive: 12.6 µM [inhibitor, partial curve, poor fit]"
21,COc1ccc(/C=C/c2nc(N)nc(-c3ccccc3O)n2)cc1OC,"inconclusive: 35.5 µM [inhibitor, single point]"
22,O=S1(=O)CC(N2CCC(Cc3ccccc3)CC2)CN1C1CCCC1 (stereo unspecified),"inconclusive: 2.51 µM [inhibitor, partial curve, poor fit]"
